The values that follow come from PMC12820563.

Some of the results follow. The list includes weakly bound sequences.

The target of this assay is T1, MBP-FoxP3dN (UniProt Q99JB6).
T1 sequence: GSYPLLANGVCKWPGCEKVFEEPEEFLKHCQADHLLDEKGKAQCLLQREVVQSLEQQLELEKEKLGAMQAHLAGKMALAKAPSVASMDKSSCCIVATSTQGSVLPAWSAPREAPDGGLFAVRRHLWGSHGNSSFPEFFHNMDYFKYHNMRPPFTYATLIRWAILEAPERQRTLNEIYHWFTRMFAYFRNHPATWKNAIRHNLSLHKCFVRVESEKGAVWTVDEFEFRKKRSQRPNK
The assay is described as follows: PD-seq (MBP pull-down with sequencing). To be noted: 20 mM Tris-HCl pH 7.5, 100 mM NaCl, 1.5 mM MgCl2, 0.4 uM protein, 0.1 uM dsDNA library, 30 min, room temperature, amylose pull-down; high values mean tight binding; double strand, one strand shown.
As to “GATGATTGTTCTCCCAGCTGATGAATTCACATCCTCGAGTAAACAAATTTTCCTAATCTTTCTGTTCAAGCGCCATCTAC”, the binding signal (RPM ratio (pull-down/input)) amounted to 0.484.

On to “GATGATTGTTCTCCCAGCTGATGAATTGTGGGCGTCGAGTAAACAAATTTTCCTAATCTTTCTGTTCAAGCGCCATCTAC”, for which the binding signal (RPM ratio (pull-down/input)) worked out at 0.752.

In the case of “GATGATTGTTCTCCCAGCTGATGAATTCTTACTCTCGAGTAAACAAATTTTCCTAATCTTTCTGTTCAAGCGCCATCTAC”, the binding signal (RPM ratio (pull-down/input)) was 0.302.

As to “GATGATTGTTCTCCCAGCTGATGAATTCCTACAATCGAGTAAACAAATTTTCCTAATCTTTCTGTTCAAGCGCCATCTAC”, the binding signal (RPM ratio (pull-down/input)) came out at 0.294.

As for “GATGATTGTTCTCCCAGCTGATGAATTCATGCCTTCGAGTAAACAAATTTTCCTAATCTTTCTGTTCAAGCGCCATCTAC”, the binding signal (RPM ratio (pull-down/input)) is 1.85.

“GATGATTGTTCTCCCAGCTGATGAATTCGAGCGCTCGAGTAAACAAATTTTCCTAATCTTTCTGTTCAAGCGCCATCTAC”: the binding signal (RPM ratio (pull-down/input)) came out at 0.347.

As to “GATGATTGTTCTCCCAGCTGATGAATTGACAACCTCGAGTAAACAAATTTTCCTAATCTTTCTGTTCAAGCGCCATCTAC”, the binding signal (RPM ratio (pull-down/input)) came out at 0.534.

As for “GATGATTGTTCTCCCAGCTGATGAATTAATCGCCTCGAGTAAACAAATTTTCCTAATCTTTCTGTTCAAGCGCCATCTAC”, the binding signal (RPM ratio (pull-down/input)) was 0.621.

As to “GATGATTGTTCTCCCAGCTGATGAATTAGAAGTCTCGAGTAAACAAATTTTCCTAATCTTTCTGTTCAAGCGCCATCTAC”, the binding signal (RPM ratio (pull-down/input)) was found to be 0.361.

In the case of “GATGATTGTTCTCCCAGCTGATGAATTCTGCTGCTCGAGTAAACAAATTTTCCTAATCTTTCTGTTCAAGCGCCATCTAC”, the binding signal (RPM ratio (pull-down/input)) was 0.731.

On to “GATGATTGTTCTCCCAGCTGATGAATTATAGACATCGAGTAAACAAATTTTCCTAATCTTTCTGTTCAAGCGCCATCTAC”, for which the binding signal (RPM ratio (pull-down/input)) worked out at 0.664.

With “GATGATTGTTCTCCCAGCTGATGAATTAACGGTCTCGAGTAAACAAATTTTCCTAATCTTTCTGTTCAAGCGCCATCTAC”, the binding signal (RPM ratio (pull-down/input)) is 0.368.

In the case of “GATGATTGTTCTCCCAGCTGATGAATTAACTCTTTCGAGTAAACAAATTTTCCTAATCTTTCTGTTCAAGCGCCATCTAC”, the binding signal (RPM ratio (pull-down/input)) is 0.323.

As to “GATGATTGTTCTCCCAGCTGATGAATTGTCATTTTCGAGTAAACAAATTTTCCTAATCTTTCTGTTCAAGCGCCATCTAC”, the binding signal (RPM ratio (pull-down/input)) came out at 0.999.

In the case of “GATGATTGTTCTCCCAGCTGATGAATTGGTTGCCTCGAGTAAACAAATTTTCCTAATCTTTCTGTTCAAGCGCCATCTAC”, the binding signal (RPM ratio (pull-down/input)) worked out at 2.39.

With “GATGATTGTTCTCCCAGCTGATGAATTGTACCATTCGAGTAAACAAATTTTCCTAATCTTTCTGTTCAAGCGCCATCTAC”, the binding signal (RPM ratio (pull-down/input)) amounted to 0.682.

Turning to “GATGATTGTTCTCCCAGCTGATGAATTCCTTGCGTCGAGTAAACAAATTTTCCTAATCTTTCTGTTCAAGCGCCATCTAC”, the binding signal (RPM ratio (pull-down/input)) turned out to be 0.417.

Take “GATGATTGTTCTCCCAGCTGATGAATTGACCGAATCGAGTAAACAAATTTTCCTAATCTTTCTGTTCAAGCGCCATCTAC”: the binding signal (RPM ratio (pull-down/input)) is 0.227.

In the case of “GATGATTGTTCTCCCAGCTGATGAATTCATCCGATCGAGTAAACAAATTTTCCTAATCTTTCTGTTCAAGCGCCATCTAC”, the binding signal (RPM ratio (pull-down/input)) amounted to 0.221.

With “GATGATTGTTCTCCCAGCTGATGAATTTCTAAAATCGAGTAAACAAATTTTCCTAATCTTTCTGTTCAAGCGCCATCTAC”, the binding signal (RPM ratio (pull-down/input)) is 0.2.

As for “GATGATTGTTCTCCCAGCTGATGAATTGATCTCGTCGAGTAAACAAATTTTCCTAATCTTTCTGTTCAAGCGCCATCTAC”, the binding signal (RPM ratio (pull-down/input)) worked out at 0.276.

As to “GATGATTGTTCTCCCAGCTGATGAATTGGCACAGTCGAGTAAACAAATTTTCCTAATCTTTCTGTTCAAGCGCCATCTAC”, the binding signal (RPM ratio (pull-down/input)) was found to be 0.32.

For “GATGATTGTTCTCCCAGCTGATGAATTATGGCGGTCGAGTAAACAAATTTTCCTAATCTTTCTGTTCAAGCGCCATCTAC”, the binding signal (RPM ratio (pull-down/input)) was 0.638.

In the case of “GATGATTGTTCTCCCAGCTGATGAATTGACATCCTCGAGTAAACAAATTTTCCTAATCTTTCTGTTCAAGCGCCATCTAC”, the binding signal (RPM ratio (pull-down/input)) was 0.561.

For the sequence “GATGATTGTTCTCCCAGCTGATGAATTACTTGTTTCGAGTAAACAAATTTTCCTAATCTTTCTGTTCAAGCGCCATCTAC”, the binding signal (RPM ratio (pull-down/input)) turned out to be 0.804.

As for “GATGATTGTTCTCCCAGCTGATGAATTGGGAGCTTCGAGTAAACAAATTTTCCTAATCTTTCTGTTCAAGCGCCATCTAC”, the binding signal (RPM ratio (pull-down/input)) was 0.302.

“GATGATTGTTCTCCCAGCTGATGAATTATGCAAGTCGAGTAAACAAATTTTCCTAATCTTTCTGTTCAAGCGCCATCTAC”: the binding signal (RPM ratio (pull-down/input)) turned out to be 3.21.

In the case of “GATGATTGTTCTCCCAGCTGATGAATTTCGCTAATCGAGTAAACAAATTTTCCTAATCTTTCTGTTCAAGCGCCATCTAC”, the binding signal (RPM ratio (pull-down/input)) turned out to be 0.341.

In the case of “GATGATTGTTCTCCCAGCTGATGAATTAGTCCGCTCGAGTAAACAAATTTTCCTAATCTTTCTGTTCAAGCGCCATCTAC”, the binding signal (RPM ratio (pull-down/input)) is 0.349.

Turning to “GATGATTGTTCTCCCAGCTGATGAATTGCCTTAATCGAGTAAACAAATTTTCCTAATCTTTCTGTTCAAGCGCCATCTAC”, the binding signal (RPM ratio (pull-down/input)) amounted to 0.522.

With “GATGATTGTTCTCCCAGCTGATGAATTTAGTGCTTCGAGTAAACAAATTTTCCTAATCTTTCTGTTCAAGCGCCATCTAC”, the binding signal (RPM ratio (pull-down/input)) worked out at 1.27.

As for “GATGATTGTTCTCCCAGCTGATGAATTATGTACTTCGAGTAAACAAATTTTCCTAATCTTTCTGTTCAAGCGCCATCTAC”, the binding signal (RPM ratio (pull-down/input)) was determined as 1.46.
